In PubChem BioAssay AID686978 (National Center for Advancing Translational Sciences (NCATS), 2013):
Values joined by “and” are separate entries in the source; they are usually repeats but may differ in a detail not shown here. Identical values can stand only once. Out of some 420,000 compounds screened, about 64,000 (15%) were called active. Inconclusive results, whose numbers are uncertain, are shown with a selection of clear calls. Calls come from the whole dose curve; as a rule, active = well fitted inhibition curve with a large enough effect; inconclusive = small, poorly fitted or top-dose-only effect; inactive = flat fitted curve, though single readings scatter. Potencies of inconclusive entries are left out as doubtful fits.

assay: qHTS for Inhibitors of human tyrosyl-DNA phosphodiesterase 1 (TDP1): qHTS in cells in absence of CPT; conditions: DT40 Tdp1-/- hTDP1 cells, no CPT, ATP luminescence, 48 h; activity change, negative = growth inhibition: at 46.2 µM (top of the series); note: nearly all actives have a fitted effect of over 55% in size
How it was run: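 Camptothecin absent (DMSO only). Human TDP1-complemented DT40 knockout cells, 400 cells/well, 37 °C for minimum 48 hr; ATP measured via CellTiter-Glo, 30 min dark incubation, luminescence.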
% is set by controls: 0 for no effect and ±100 for the full control effect; potency is the fitted concentration of half-maximal effect; tags give direction and shape of the fitted curve.

Compound	activity change, negative = growth inhibition	Potency
COc1ccc(-n2cc([N+](=O)[O-])c(=O)c3ccc(Cl)cc32)cc1	inactive: -9.17%	
Cc1cccc(C)c1NC(=O)CSCc1cccc(CSCC(=O)Nc2c(C)cccc2C)n1		inconclusive [inhibitor, single point]
Cc1ccc(S(=O)(=O)NCC(=O)NCC(=O)NCCc2ccc(Cl)cc2)cc1C		inconclusive [inhibitor, single point]
CC[C@]12c3[nH]c4cc(-c5ccco5)ccc4c3CCN1C(=O)[C@@H](CC(=O)NCc1ccc(OC)c(OC)c1)C[C@@H]2C(=O)N1CCN(C(=O)C2CC2)CC1		inconclusive [inhibitor, single point]
COC(=O)C(NC(=O)c1ccco1)(Nc1cc(C)ccn1)C(F)(F)F (stereo not given)	inactive: -5.61%	
COc1ccc(C2CC(=O)Oc3cc(C)c(Cl)c(C)c32)cc1 (stereo not given)		inconclusive [inhibitor, single point]
Cc1ccc(NC(=O)CCn2c(=O)c3cccn3c3ccccc32)c(C)c1		active: 20.6 µM
Cn1c(SCC(=O)Nc2nccs2)nnc1-c1ccc(S(=O)(=O)N2CCCC2)cc1	inactive: -18.6%	
CCOC(=O)CC1(c2ccccc2)CCOC(C)(C)C1 (stereo not given)		inconclusive [inhibitor, single point]
COc1ccc(NS(=O)(=O)c2cc3c4c(c2)CCN4C(=O)CC3)cc1OC		inconclusive [inhibitor, single point]
C=CCOC(=O)Cn1cnc2c(sc3nc(C)cc(C)c32)c1=O	inactive: -16.9%	
CCc1ccc(NC(=S)NC(=O)CC(C)C)cc1		inconclusive [inhibitor, single point]
Cc1ccc(S(=O)(=O)/N=C2\C=C(NS(=O)(=O)c3ccc(C)cc3)C(=O)c3ccccc32)cc1		inconclusive [inhibitor, single point]
Cc1cc(C)c2sc(N(Cc3cccnc3)C(=O)CCOc3ccccc3)nc2c1		inconclusive [inhibitor, single point]
O=C1OCCC1=COCCCCCOC=C1CCOC1=O	inactive: -14.7%	
C=C1CCN([C@@H](CC(C)C)C(=O)NCc2cc(OC)c(OC)c(OC)c2)S(=O)(=O)c2ccccc21		inconclusive [inhibitor, partial curve]
Cc1ccc2c(C(=O)CNc3nc(C)c(C)s3)c(C)[nH]c2c1	inconclusive: -30.7% [inhibitor]	
CC1=CC(C)(C)N(S(=O)(=O)c2ccc(C)cc2)c2ccccc21		active: 4.47 µM and active: 18.4 µM
CC(C)CN1CC[C@@]2(CCCN(C(=O)c3cc(C(F)(F)F)cc(C(F)(F)F)c3)C2)C1		inconclusive [inhibitor, single point]
CCN1CCN(CC(=O)Nc2cc(S(=O)(=O)N3CCCCC3)ccc2Cl)CC1	inactive: -9.94%	
CCC(=O)Nc1ccc(C(=O)NNC(=O)C(c2ccccc2)c2ccccc2)cc1	inactive: -22.6%	
O=S(=O)(Cc1noc(-c2ccc(OC(F)(F)F)cc2)n1)c1ccc(F)cc1		inconclusive [inhibitor, partial curve]
CCOc1cc(NC(=O)c2cccs2)c(OCC)cc1NC(=O)c1ccccn1		inconclusive [inhibitor, full curve]
Cc1cccn2c(=O)nc(SCC(=O)c3ccc(Cl)cc3)nc12		inconclusive [inhibitor, partial curve]

Compound	activity change, negative = growth inhibition	Potency
CCOC(=O)c1ccc2c(c1)[C@@H]1C=CC[C@@H]1[C@H](c1cccc(OC)c1OC)N2		inconclusive [inhibitor, partial curve]
COC(=O)c1ccc(Cc2ccccc2)o1	inactive: -14%	
COc1ccc(OC)c2nc(-c3cccnc3)ccc12	inconclusive: -32.8% [inhibitor]	
Cc1ccc(C)c(N2CCN(C(=O)Cn3nc(C)c4sc5ccccc5c4c3=O)CC2)c1		active: 23.1 µM
COc1ccccc1N(CC(=O)Nc1ccccc1C(F)(F)F)S(=O)(=O)c1ccc(C)cc1		inconclusive [inhibitor, single point]
CN(C)Cc1ccccc1Cc1ccccc1	inactive: -3.73%	
CCOC(=O)c1c(C)n(C)c2ccc(OC)c(NC(=O)CN3CCN(Cc4ccccc4)CC3)c12		inconclusive [inhibitor, partial curve]
Cc1ccc(CNc2nc(CN3CCCCC3c3cccnc3)nc3ccccc23)o1 (stereo not given)		inconclusive [inhibitor, single point]
Cc1ccc(/C=N/Nc2nnc(Cc3ccccc3)c(=O)[nH]2)o1		inconclusive [inhibitor, partial curve]
CCCN(CC(=O)Nc1ccccc1OC)C(=O)c1ccc2[nH]c3c(c2c1)CC(C)CC3 (stereo not given)		inconclusive [inhibitor, single point]
O=C(NCc1cccnc1)c1ccc(-c2ccccc2[N+](=O)[O-])o1	inconclusive: -33.3% [inhibitor]	
CC(C)(C)S(=O)(=O)c1cnc2c(-c3ccsc3)cnn2c1N	inconclusive: -30.2% [inhibitor]	
CN(C(=O)CSc1nc2ccccc2n1C)C1CCS(=O)(=O)C1 (stereo not given)	inactive: -9.34%	
O=C(Nc1ccc2oc(-c3ccccc3F)nc2c1)c1ccco1		inconclusive [inhibitor, partial curve]
Cc1oc2ccc(O)c(CN3CCCCCC3)c2c1C(=O)Nc1cccc(C(F)(F)F)c1		active: 5.17 µM
Nc1nc(N)nc(-c2cc(F)ccc2O)n1		inconclusive [inhibitor, single point]
O=C(Nc1ccc2c(c1)OCCO2)C(c1ccncc1)n1c(=O)c(-c2cc3ccccc3[nH]2)nc2ccccc21 (stereo not given)		inconclusive [inhibitor, single point]
O=C1c2ccccc2C(=O)c2c1cccc2N1CCN(CCO)CC1		inconclusive [inhibitor, partial curve]
CCC(O)c1nc2ccccc2n1Cc1cc(C)ccc1C (stereo not given)		inconclusive [inhibitor, single point]
O=C(CCCc1ccccc1)Nc1cccc2c1CCCC2		inconclusive [inhibitor, single point]
CCCCN1CC(COCc2ccccc2)Oc2cc(Br)ccc2S1(=O)=O (stereo not given)		inconclusive [inhibitor, single point]
Cc1cc(=O)oc2cc(OCC(=O)OCC(=O)Nc3ccccc3Br)ccc12	inactive: -17.4%	
Cc1ccc(NC(=O)C2CCN(S(=O)(=O)c3ccc4c(c3)CCCC(=O)N4)CC2)cc1N(C)C	inactive: -20.8%	
O=C(Nc1cccc(Cl)c1)c1ccc2sc([C@H]3C[C@H](O)[C@@H](CO)O3)nc2c1		active: 23.1 µM

Compound	activity change, negative = growth inhibition	Potency
Cc1ccc(-n2nnnc2SCC(=O)c2c(N)n(C3CC3)c(=O)[nH]c2=O)c(C)c1		inconclusive [inhibitor, single point]
CCn1c(C)c(C)c2cc(C(=O)NCCN3CCCCCC3)ccc21		inconclusive [inhibitor, full curve, poor fit]
N#CC1(Cc2ccccc2)c2ccccc2C=CN1C(=O)c1ccccc1 (stereo not given)		inconclusive [inhibitor, single point]
CN(C)c1ncc(C2=C(Cl)C(=O)C(N3CCCC3)=C(Cl)C2=O)s1		active: 1.16 µM
CC(Nc1ccc([N+](=O)[O-])cc1[N+](=O)[O-])c1ccccc1 (stereo not given)		active: 20.6 µM
CCOc1ccc(NC(=O)CSc2nc3ccsc3c(=O)n2CCC(C)C)cc1		inconclusive [inhibitor, partial curve]
CC1(C)CC(=O)C2=C(C1)OC1=C(C(=O)CC(C)(C)C1)C2c1ccc(O)c([N+](=O)[O-])c1	inactive: -12.2%	
O=C(CSc1nc2ccccc2c(=O)n1C1CC1)NCc1ccccc1		inconclusive [inhibitor, partial curve]
CC(C)Nc1ncnc2c1cnn2-c1ccccc1	inconclusive: -31.8% [inhibitor]	
Cc1cc(C)cc(OCC(=O)N/N=C/c2ccncc2)c1	inactive: -16.2%	
COc1ccccc1NC(=O)NC1CC(=O)N(c2ccc3c(c2)OCCO3)C1 (stereo not given)		inconclusive [inhibitor, full curve, poor fit]
COCCn1c(C(F)(F)F)ccc(NC(=O)c2ccccc2)c1=O		inconclusive [inhibitor, partial curve]
CCOC(=O)c1cnc(SCC(=O)Nc2cc(OC)cc(OC)c2)nc1N		active: 8.2 µM
O=C(Nc1cc2c3c(c1)CC(=O)N3CCC2)c1ccc(F)cc1	inconclusive: -35.2% [inhibitor]	
CC1(C(=O)NS(=O)(=O)c2cccs2)CCN1C(=O)Cc1ccccc1 (stereo not given)	inactive: 1.73%	
CCc1nc2ccc(C(=O)N3CCN(C(=O)c4ccco4)CC3)cn2c1N(C)C(=O)c1cccc(OC)c1	inactive: -29.8%	
COc1cc2ccccc2cc1C(=O)N1CCN(c2ccccc2O)CC1		inconclusive [inhibitor, partial curve, poor fit]
CC(=O)CC(=O)Nc1ccccc1NC(C)=O	inactive: 0.686%	
O=C(CSc1nnc(Cn2nnc3ccccc32)o1)Nc1ccc(Cl)cc1	inactive: -7.08%	
COc1ccc(OC)c(NC(=O)C(C)n2c(=O)c(-c3ccccc3NC(C)=O)nc3ccccc32)c1 (stereo not given)		inconclusive [inhibitor, single point]
Cc1nc(SCC(=O)N2CCCC2=O)c2c(C)c(C)sc2n1		inconclusive [inhibitor, single point]
O=C(Nc1ccc(-c2cn3c(n2)SCC3)cc1)c1ccc2c(c1)OCO2		inconclusive [inhibitor, partial curve, poor fit]
